# Measurements from the supplement of paper PMC8728848.
# The other results are listed elsewhere or left out.
# B1: MIC4-A5 (Toxoplasma gondii), Q9XZH7 (protein)
# chain: SPDFHDEVECVHTGNIGSKAQTIGEVKRASSLSECRARCQAEKECSHYTYNVKSGLCYPKRGKPQFYKYLGDMTGSRTCDTS
# What was measured:
# Assay in all cases: glycan array binding signal (z-score within array); higher = stronger binding
# Settings in all cases: glycan notation: IUPAC condensed, linker removed
# [1] = biological target: Man(b1-4)Man(b1-4)Man(b1-4)Man(b1-4)Man(b1-4)Man
# Method in brief: (§1)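 From the Consortium for Functional Glycomics database, 3228 arrays were curated, keeping only those whose protein sequence was available. Binding is given as a within-array Z-score averaged across arrays sharing a protein sequence and across linkers. Negative Z-scores can be read as non-binding.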
# [2] = biological target: Man6P(a1-3)Man(a1-3)Man(a1-3)Man(a1-2)Man
# Method in brief: as §1
# [3] = biological target: Neu(a2-3)Gal(b1-4)Glc
# Method in brief: as §1
# [4] = biological target: Neu(a2-3)Gal(b1-4)GlcNAc(b1-3)Gal(b1-4)[Fuc(a1-3)]GlcNAc(b1-3)Gal(b1-4)Glc
# Method in brief: as §1
# [5] = biological target: Neu(a2-3)Gal(b1-4)GlcNAc6S(b1-3)Gal(b1-4)Glc
# Method in brief: as §1
# [6] = biological target: Neu(a2-3)Gal(b1-4)[Fuc(a1-3)]GlcNAc(b1-3)Gal(b1-4)Glc
# Method in brief: as §1
# [7] = biological target: Neu(a2-3)Gal(b1-4)[Fuc(a1-3)]GlcNAc6S(b1-3)Gal(b1-4)Glc
# Method in brief: as §1
# [8] = biological target: Neu(a2-3)Gal6S(b1-4)[Fuc(a1-3)]GlcN(b1-3)Gal(b1-4)Glc
# Method in brief: as §1
# [9] = biological target: Neu(a2-6)Gal(b1-4)Glc
# Method in brief: as §1
# [10] = biological target: Neu4Ac5Ac(a2-3)Gal(b1-4)Glc
# Method in brief: as §1
# [11] = biological target: Neu5Ac(a2-3)Gal
# Method in brief: as §1
# [12] = biological target: Neu5Ac(a2-3)Gal(b1-3)GalNAc(b1-4)[Neu5Ac(a2-3)]Gal(b1-4)Glc
# Method in brief: as §1
# [13] = biological target: Neu5Ac(a2-3)Gal(b1-3)GalNAc(b1-4)[Neu5Ac(a2-8)Neu5Ac(a2-3)]Gal(b1-4)Glc
# Method in brief: as §1
# [14] = biological target: Neu5Ac(a2-3)Gal(b1-3)GlcNAc
# Method in brief: as §1
# [15] = biological target: Neu5Ac(a2-3)Gal(b1-3)GlcNAc(b1-3)Gal(b1-4)Glc
# Method in brief: as §1
# [16] = biological target: Neu5Ac(a2-3)Gal(b1-3)GlcNAc(b1-3)[Fuc(a1-3)[Gal(b1-4)]GlcNAc(b1-6)]Gal(b1-4)Glc
# Method in brief: as §1
# [17] = biological target: Neu5Ac(a2-3)Gal(b1-3)[Fuc(a1-4)]GlcNAc
# Method in brief: as §1
# [18] = biological target: Neu5Ac(a2-3)Gal(b1-3)[Fuc(a1-4)]GlcNAc(b1-3)Gal(b1-4)Glc
# Method in brief: as §1
# [19] = biological target: Neu5Ac(a2-3)Gal(b1-3)[Neu5Ac(a2-6)]GalNAc
# Method in brief: as §1
# [20] = biological target: Neu5Ac(a2-3)Gal(b1-3)[Neu5Ac(a2-6)]GlcNAc(b1-3)Gal(b1-4)Glc
# Method in brief: as §1
# [21] = biological target: Neu5Ac(a2-3)Gal(b1-4)Glc
# Method in brief: as §1
# [22] = biological target: Neu5Ac(a2-3)Gal(b1-4)GlcNAc
# Method in brief: as §1
# [23] = biological target: Neu5Ac(a2-3)Gal(b1-4)GlcNAc(b1-2)Man(a1-3)[Neu5Ac(a2-3)Gal(b1-4)GlcNAc(b1-2)Man(a1-6)]Man(b1-4)GlcNAc(b1-4)[Fuc(a1-6)]GlcNAc
# Method in brief: as §1
# [24] = biological target: Neu5Ac(a2-3)Gal(b1-4)GlcNAc(b1-3)Gal(b1-4)Glc
# Method in brief: as §1
# [25] = biological target: Neu5Ac(a2-3)Gal(b1-4)GlcNAc6S(b1-3)Gal6S(b1-3)GlcNAc6S
# Method in brief: as §1
# [26] = biological target: Neu5Ac(a2-3)Gal(b1-4)[Fuc(a1-3)]GlcNAc
# Method in brief: as §1
# [27] = biological target: Neu5Ac(a2-3)Gal(b1-4)[Fuc(a1-3)]GlcNAc(b1-3)Gal
# Method in brief: as §1
# [28] = biological target: Neu5Ac(a2-3)Gal(b1-4)[Fuc(a1-3)]GlcNAc(b1-3)Gal(b1-4)Glc
# Method in brief: as §1
# [29] = biological target: Neu5Ac(a2-3)Gal(b1-4)[Fuc(a1-3)]GlcNAc(b1-3)Gal(b1-4)[Fuc(a1-3)]GlcNAc(b1-3)Gal(b1-4)Glc
# Method in brief: as §1
# [30] = biological target: Neu5Ac(a2-3)Gal(b1-4)[Fuc(a1-3)]GlcNAc6S(b1-3)Gal(b1-4)Glc
# Method in brief: as §1
# [31] = biological target: Neu5Ac(a2-3)Gal6S(b1-4)[Fuc(a1-3)]GlcNAc(b1-3)Gal(b1-4)Glc
# Method in brief: as §1
# [32] = biological target: Neu5Ac(a2-3)Gal6S(b1-4)[Fuc(a1-3)]GlcNAc6S(b1-3)Gal(b1-4)Glc
# Method in brief: as §1
# [33] = biological target: Neu5Ac(a2-3)[GalNAc(b1-4)]Gal(b1-3)GalNAc(b1-4)[Neu5Ac(a2-3)]Gal(b1-4)Glc
# Method in brief: as §1
# [34] = biological target: Neu5Ac(a2-3)[GalNAc(b1-4)]Gal(b1-4)Glc
# Method in brief: as §1
# [35] = biological target: Neu5Ac(a2-6)Gal(b1-3)GlcNAc(b1-3)[Fuc(a1-3)[Gal(b1-4)]GlcNAc(b1-6)]Gal(b1-4)Glc
# Method in brief: as §1
# [36] = biological target: Neu5Ac(a2-6)Gal(b1-3)GlcNAc(b1-3)[Gal(b1-4)GlcNAc(b1-6)]Gal(b1-4)Glc
# Method in brief: as §1
# [37] = biological target: Neu5Ac(a2-6)Gal(b1-4)Glc
# Method in brief: as §1
# [38] = biological target: Neu5Ac(a2-6)Gal(b1-4)GlcNAc
# Method in brief: as §1
# [39] = biological target: Neu5Ac(a2-6)Gal(b1-4)GlcNAc(b1-2)Man(a1-3)[Neu5Ac(a2-6)Gal(b1-4)GlcNAc(b1-2)Man(a1-6)]Man(b1-4)GlcNAc(b1-4)GlcNAc
# Method in brief: as §1
# [40] = biological target: Neu5Ac(a2-6)Gal(b1-4)GlcNAc(b1-2)Man(a1-3)[Neu5Gc(a2-6)Gal(b1-4)GlcNAc(b1-2)Man(a1-6)]Man(b1-4)GlcNAc(b1-4)GlcNAc
# Method in brief: as §1
# [41] = biological target: Neu5Ac(a2-6)Gal(b1-4)GlcNAc(b1-2)[Neu5Ac(a2-3)Gal(b1-4)GlcNAc(b1-4)]Man(a1-3)[Neu5Ac(a2-3)Gal(b1-4)GlcNAc(b1-2)Man(a1-6)]Man(b1-4)GlcNAc(b1-4)GlcNAc
# Method in brief: as §1
# [42] = biological target: Neu5Ac(a2-6)Gal(b1-4)GlcNAc(b1-3)Gal(b1-4)Glc
# Method in brief: as §1
# [43] = biological target: Neu5Ac(a2-6)Gal(b1-4)GlcNAc(b1-3)Gal(b1-4)[Fuc(a1-3)]Glc
# Method in brief: as §1
# [44] = biological target: Neu5Ac(a2-6)Gal(b1-4)GlcNAc(b1-3)[Neu5Ac(a2-6)Gal(b1-4)GlcNAc(b1-6)]Gal(b1-4)Glc
# Method in brief: as §1
# [45] = biological target: Neu5Ac(a2-6)Gal(b1-4)GlcNAc(b1-6)[Gal(b1-3)GlcNAc(b1-3)]Gal(b1-4)Glc
# Method in brief: as §1
binder,measurement,setting,value
B1,glycan array binding signal (z-score),[1],-0.317
same,glycan array binding signal (z-score),[2],-0.323
same,glycan array binding signal (z-score),[3],-0.302
same,glycan array binding signal (z-score),[4],-0.323
same,glycan array binding signal (z-score),[5],-0.279
same,glycan array binding signal (z-score),[6],-0.317
same,glycan array binding signal (z-score),[7],-0.315
same,glycan array binding signal (z-score),[8],-0.323
same,glycan array binding signal (z-score),[9],-0.31
same,glycan array binding signal (z-score),[10],-0.323
same,glycan array binding signal (z-score),[11],-0.323
same,glycan array binding signal (z-score),[12],-0.191
same,glycan array binding signal (z-score),[13],-0.043
same,glycan array binding signal (z-score),[14],-0.323
same,glycan array binding signal (z-score),[15],-0.321
same,glycan array binding signal (z-score),[16],-0.323
same,glycan array binding signal (z-score),[17],-0.323
same,glycan array binding signal (z-score),[18],-0.323
same,glycan array binding signal (z-score),[19],-0.323
same,glycan array binding signal (z-score),[20],-0.323
same,glycan array binding signal (z-score),[21],-0.32
same,glycan array binding signal (z-score),[22],-0.312
same,glycan array binding signal (z-score),[23],-0.323
same,glycan array binding signal (z-score),[24],-0.323
same,glycan array binding signal (z-score),[25],-0.291
same,glycan array binding signal (z-score),[26],-0.323
same,glycan array binding signal (z-score),[27],-0.323
same,glycan array binding signal (z-score),[28],-0.323
same,glycan array binding signal (z-score),[29],-0.323
same,glycan array binding signal (z-score),[30],-0.323
same,glycan array binding signal (z-score),[31],-0.323
same,glycan array binding signal (z-score),[32],-0.323
same,glycan array binding signal (z-score),[33],-0.323
same,glycan array binding signal (z-score),[34],-0.311
same,glycan array binding signal (z-score),[35],-0.317
same,glycan array binding signal (z-score),[36],-0.093
same,glycan array binding signal (z-score),[37],-0.319
same,glycan array binding signal (z-score),[38],-0.32
same,glycan array binding signal (z-score),[39],-0.323
same,glycan array binding signal (z-score),[40],-0.323
same,glycan array binding signal (z-score),[41],-0.304
same,glycan array binding signal (z-score),[42],-0.321
same,glycan array binding signal (z-score),[43],-0.319
same,glycan array binding signal (z-score),[44],-0.323
same,glycan array binding signal (z-score),[45],0.909
